Data: the supplement of paper PMC4166925
± gives the standard deviation of the averaged measurements. Whole data set: some 33,000 sequences, median “E-score (dimensionless, -0.5 to 0.5)” near -0.049, cut for the highest 2% near 0.37. Some of the results follow.

What follows are sequences tested on T1, PmTbr T-box DNA-binding domain (GST fusion) (assay: PBM E-score of 8-mer (E-score (dimensionless, -0.5 to 0.5)); Tbr is Tbrain of the sea star Patiria miniata (Pm) or the sea urchin Strongylocentrotus purpuratus (Sp); higher = stronger binding preference; most listed sequences are background and not binding sites). Conditions: the construct has about 5 more residues each side.
T1 sequence: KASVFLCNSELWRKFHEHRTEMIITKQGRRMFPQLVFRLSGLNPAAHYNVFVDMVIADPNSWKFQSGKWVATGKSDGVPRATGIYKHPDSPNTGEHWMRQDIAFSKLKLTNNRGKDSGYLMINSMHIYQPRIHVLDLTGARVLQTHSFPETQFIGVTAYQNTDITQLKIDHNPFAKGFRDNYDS
Procedure, shortened: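 GST-fused Tbr T-box DNA-binding domains (the whole T-box plus about five flanking residues) were expressed in BL21 E. coli at 20 °C and purified by glutathione affinity chromatography. Universal Agilent oligonucleotide arrays were made double-stranded by primer extension, incubated with 200 nM protein in PBS (pH 7.5), then scanned and quantified. Every ungapped 8-mer was scored from probe intensities. The Universal PBM Analysis Suite gave each word an enrichment E-score, averaged over duplicate arrays.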

Sequence	PBM E-score of 8-mer
TAACTATA	-0.0788 ± 0.12
GCGGCAGC	0.0309 ± 0.0077
GCCCAGGA	-0.197 ± 0.0026
AATCGAAT	-0.0926 ± 0.029
GACTAGCA	0.0457 ± 0.018
CTTTAGAA	-0.133 ± 0.058
ACGTAGGA	-0.217 ± 0.055
ACGCTGTA	0.151 ± 0.022
CTATAATC	-0.101 ± 0.028
CTGCCGCA	-0.142 ± 0.029
CACCCGAA	0.223 ± 0.029
AATGCCGA	-0.0849 ± 0.043
GTCGTCGA	0.0889 ± 0.015
AGCGCCGC	0.117 ± 0.044
AGCAGAGA	-0.236 ± 0.089
GGCGAAAA	0.0979 ± 0.072
ACGAAATG	0.00596 ± 0.0068
GAAGTCCA	-0.152 ± 0.012
GCATTTAA	-0.00154 ± 0.098
CCATCGCG	0.0886 ± 0.0034
CCGAGCAC	-0.0347 ± 0.014
AGAAGGCA	1.5e-05 ± 0.00087

Sequence	PBM E-score of 8-mer
AGTACGCC	-0.159 ± 0.03
ACGGTCTC	-0.214 ± 0.0017
CACATCAG	0.162 ± 0.035
GGGTAGTA	-0.2 ± 0.0041
ATTAGTCG	-0.073 ± 0.029
ACTCCCTA	-0.155 ± 0.06
CGGCTTAG	-0.0926 ± 0.017
CCTAACAC	0.4369 ± 0.0041
AAACTTCT	-0.236 ± 0.043
GGCAAGCC	-0.13 ± 0.013
AATTTGTG	0.0634 ± 0.039
AAGGACAA	-0.0539 ± 0.012
AACGCACT	0.0213 ± 0.03
CTGGGACA	-0.223 ± 0.073
CCGGCTAA	-0.106 ± 0.042
GCGTATTA	-0.0361 ± 0.04
GTAGCGCA	-0.0861 ± 0.043
TAGCGCAA	0.275 ± 0.0038
ACGCAGTA	-0.0663 ± 0.018
GGATGTCA	0.0662 ± 0.069
CTCTGCTA	-0.0752 ± 0.016
CCGTGAGA	0.173 ± 0.029

Sequence	PBM E-score of 8-mer
ATGCTCAA	-0.254 ± 0.066
CACGTTTC	0.232 ± 0.037
ATCACTGG	-0.0944 ± 0.042
ATCTTGCG	0.00688 ± 0.039
GGACACAA	-0.113 ± 0.042
CAGTCGCG	0.196 ± 0.016
CCTACCAC	0.183 ± 0.061
ATAGCGGG	0.107 ± 0.034
CATCATAG	-0.0931 ± 0.025
ATGGGAAC	-0.199 ± 0.059
ATTCCGAA	-0.309 ± 0.064
CCCTATCG	-0.11 ± 0.042
ACTTAGTC	-0.0896 ± 0.017
CACGGAAC	-0.00268 ± 0.045
TCTAGCAA	0.105 ± 0.0068
CGTCCTTC	-0.328 ± 0.055
AGAAAGGC	-0.00281 ± 0.027
CGTATAGA	-0.109 ± 0.022
GCATCTAA	-0.162 ± 0.043
ACTTAAAT	-0.228 ± 0.078
ACTGTAAG	0.013 ± 0.011
TCGTAGCA	0.218 ± 0.016

Sequence	PBM E-score of 8-mer
GTGTTAAC	0.438 ± 0.017
CGCCCACC	-0.151 ± 0.013
TATAGTGA	0.118 ± 0.016
GGAGAGAC	-0.121 ± 0.037
ACTTAGAC	-0.0159 ± 0.0036
GCCCTACA	-0.311 ± 0.022
ATAAAGAT	-0.306 ± 0.037
AGCTTGTA	-0.179 ± 0.064
CTATGCGC	0.0229 ± 0.027
AGCTCCTA	0.0875 ± 0.0077
TCTCGCAA	0.307 ± 0.05
GAGCATCA	-0.194 ± 0.035
TCTGATCA	-0.102 ± 0.012
GAGGGCTA	-0.0569 ± 0.064
CAACCTTC	-0.0738 ± 0.037
AGTAAGCA	-0.148 ± 0.017
GCTTTTCC	-0.257 ± 0.055
ACTTTGAT	-0.0929 ± 0.011
GAGTGTTA	0.385 ± 0.012
AAAGTACA	-0.0134 ± 0.017
AGCCGTCC	-0.226 ± 0.0056
ACATCCAC	0.1199 ± 0.00095

Sequence	PBM E-score of 8-mer
GGTGCTGA	0.367 ± 0.021
AAAAATAG	-0.0128 ± 0.043
AATGGTAC	-0.0872 ± 0.059
CGGCAAGA	-0.0203 ± 0.03
ACGGTGCT	0.164 ± 0.072
CCGGGTCG	0.0846 ± 0.057
GGCACTAA	0.193 ± 0.09
ACCGGATG	-0.0972 ± 0.0075
AGGATGAT	-0.124 ± 0.032
CGACGCGA	0.19 ± 0.026
GGCATCCC	-0.17104 ± 0.00013
GGCTCAGA	-0.154 ± 0.053
CCACACAA	0.0617 ± 0.024
CGTGGTGA	0.167 ± 0.018
ACTAGCAA	0.00762 ± 0.0026
CATCCAGA	-0.0251 ± 0.062
AGCCCACT	-0.0697 ± 0.041
ACCCGATA	0.0682 ± 0.024
CGGCGCGA	0.317 ± 0.034
GCTGGTAC	-0.158 ± 0.01
CCACGCCA	0.0474 ± 0.0034
CTTGTAGC	0.0941 ± 0.012
